Data published in US20230135471A1 (INTEGRATED DNA TECHNOLOGIES, published 2023).
Where a chain is given by its changes, count along the chain named. Names and notes keep the numbering of the source.

B1: S65H (CM103) (designed binder)
Ubv: MHHHHHHGGSGMLIFVRMLTGKMIELEVEPSDTIENVKAKIQDHEGIPPDQQRLAFQGKSLEDGRTLSDYNILKDHKKMPLLRLR
B2: E18Y (CM69) (designed binder)
Ubv: B1 Ubv with E29Y, H76P
B3: R54Y (CM95) (designed binder)
Ubv: B1 Ubv with R65Y, H76P
B4: E18L (CM70) (designed binder)
Ubv: B1 Ubv with E29L, H76P
B5: L73M (CM104) (designed binder)
Ubv: B1 Ubv with H76P, L84M
B6: M1Y (CM63) (designed binder)
Ubv: B1 Ubv with M12Y, H76P
B7: A44T (CM89) (designed binder)
Ubv: B1 Ubv with A55T, H76P
B8: E51D (CM94) (designed binder)
Ubv: B1 Ubv with E62D, H76P
B9: D32A (CM78) (designed binder)
Ubv: B1 Ubv with D43A, H76P
B10: S49L (CM92) (designed binder)
Ubv: B1 Ubv with S60L, H76P
B11: R74Q (CM105) (designed binder)
Ubv: B1 Ubv with H76P, R85Q
B12: T14H (CM64) (designed binder)
Ubv: B1 Ubv with E25H, H76P
B13: E18F (CM71) (designed binder)
Ubv: B1 Ubv with E29F, H76P
B14: R42F (CM88) (designed binder)
Ubv: B1 Ubv with R53F, H76P
B15: S57G (CM98) (designed binder)
Ubv: B1 Ubv with S68G, H76P
B16: K33A (CM81) (designed binder)
Ubv: B1 Ubv with H44A, H76P
B17: K33Q (CM80) (designed binder)
Ubv: B1 Ubv with H44Q, H76P
B18: K48T (CM90) (designed binder)
Ubv: B1 Ubv with K59T, H76P
B19: V26I (CM74) (designed binder)
Ubv: B1 Ubv with V37I, H76P
B20: S49M (CM93) (designed binder)
Ubv: B1 Ubv with S60M, H76P
B21: Q31C (CM75) (designed binder)
Ubv: B1 Ubv with Q42C, H76P
B22: P38L (CM82) (designed binder)
Ubv: B1 Ubv with P49L, H76P
B23: E18M (CM68) (designed binder)
Ubv: B1 Ubv with E29M, H76P
B24: T14D (CM65) (designed binder)
Ubv: B1 Ubv with E25D, H76P
B25: E16T (CM67) (designed binder)
Ubv: B1 Ubv with E27T, H76P
B26: Q40E (CM84) (designed binder)
Ubv: B1 Ubv with Q51E, H76P
B27: N25V (CM72) (designed binder)
Ubv: B1 Ubv with N36V, H76P
B28: E16M (CM66) (designed binder)
Ubv: B1 Ubv with E27M, H76P
B29: N25E (CM73) (designed binder)
Ubv: B1 Ubv with N36E, H76P
B30: K63I (CM102) (designed binder)
Ubv: B1 Ubv with K74I, H76P
B31: P38C (CM83) (designed binder)
Ubv: B1 Ubv with P49C, H76P
B32: K33S (CM79) (designed binder)
Ubv: B1 Ubv with H44S, H76P
B33: M1H (CM62) (designed binder)
Ubv: B1 Ubv with M12H, H76P
B34: I61L (CM101) (designed binder)
Ubv: B1 Ubv with I72L, H76P
B35: R42H (CM87) (designed binder)
Ubv: B1 Ubv with R53H, H76P
B36: Q31F (CM77) (designed binder)
Ubv: B1 Ubv with Q42F, H76P
B37: Q31W (CM76) (designed binder)
Ubv: B1 Ubv with Q42W, H76P
B38: CM142, His-tagged (designed binder)
chain: B1 Ubv with M12Y, V37I, P49L, A55T, S60L, I72L, K74I, H76P, L84M, R85Q
B39: CM147 (designed binder)
Ubv: MHHHHHHGGSGMLIFVRMLTGKMIELEVMPSDTIEVVKAKIQDHEGIPLDQQHLTFQGTLLEDGYTLGDYNLLIDPKKMPLLRLQ
B40: CM137, His-tagged (designed binder)
chain: B39 Ubv with M12Y, V36N, V37I, L49P, H53R, T55A, L60S, E62D, Y65R, L84M
B41: CM 144 (designed binder)
Ubv: B39 Ubv with M12Y, M29E, V37I, Q51E, H53R, T59K, E62D, Y65R, G68S, L84M
B42: CM 132 (designed binder)
Ubv: B1 Ubv with M12Y, N36V, V37I, Q51E, E62D, I72L, K74I, H76P, L84M
B43: CM136, His-tagged (designed binder)
chain: B1 Ubv with M12Y, E29M, V37I, K59T, E62D, S68G, I72L, K74I, H76P, L84M
B44: CM134, His-tagged (designed binder)
chain: B1 Ubv with E29M, K59T, E62D, S68G, I72L, K74I, H76P
B45: CM138 (designed binder)
Ubv: B39 Ubv with M12Y, V37I, L49P, Q51E, H53R, T55A, L60S, E62D, Y65R, L84M
B46: CM113, His-tagged (designed binder)
chain: B1 Ubv with I72L, K74I, H76P
B47: CM139, His-tagged (designed binder)
chain: B1 Ubv with A55T, S60L, I72L, K74I, H76P
B48: CM143 (designed binder)
Ubv: B39 Ubv with M29E, Q51E, H53R, T59K, E62D, Y65R, G68S
B49: CM131, His-tagged (designed binder)
chain: B1 Ubv with M12Y, V37I, I72L, K74I, H76P, L84M
B50: CM140, His-tagged (designed binder)
chain: B1 Ubv with P49L, A55T, S60L, I72L, K74I, H76P
B51: CM 133 (designed binder)
Ubv: B1 Ubv with N36V, Q51E, E62D, I72L, K74I, H76P
B52: CM141, His-tagged (designed binder)
chain: B39 Ubv with M29E, V36N, H53R, T59K, Y65R, G68S
B53: CM135, His-tagged (designed binder)
chain: B1 Ubv with E27M, N36V, Q51E, S60L, I72L, K74I, H76P

biological target: MBP tagged 53BP1 fragment (a.a. 1484-1603); experiment: BLI, fold change Ka of Ubv/Ka of CM1

Binding result, binds:
B1
B2
B3
B4
B5
B6
B7
B8
B9
B10
B11
B12
B13
B14
B15
B16
B17
B18
B19
B20
B21
B22
B23
B24
B25
B26
B27
B28
B29
B30
B31
B32
B33
B34
B35
B36
B37

biological target: MBP tagged 53BP1 fragment (a.a. 1484-1603); experiment: BLI, fold change Ka of Ubv/Ka of CM1; remark: another data set of the same source

Binding result, binds:
B38
B39
B40
B41
B42
B43
B44
B45
B46
B47
B48
B49
B50
B51
B52
B53
